In article PMC4336329 (PLoS ONE, 2015):
Out of some 310,000 compounds screened, about 14,000 (4.5%) showed an effect of 50% or more. The effect is printed as a negative number. Some of the results follow.

target: human ether-à-go-go-related gene (hERG) potassium channel (human, UniProt Q12809); experiment: primary screen, population patch clamp on CHO cells stably expressing hERG
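Also: peak tail current of the secondary pulse compared with the same well before compound.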

Chain of human ether-à-go-go-related gene (hERG) potassium channel (Q12809 whole entry, looked up): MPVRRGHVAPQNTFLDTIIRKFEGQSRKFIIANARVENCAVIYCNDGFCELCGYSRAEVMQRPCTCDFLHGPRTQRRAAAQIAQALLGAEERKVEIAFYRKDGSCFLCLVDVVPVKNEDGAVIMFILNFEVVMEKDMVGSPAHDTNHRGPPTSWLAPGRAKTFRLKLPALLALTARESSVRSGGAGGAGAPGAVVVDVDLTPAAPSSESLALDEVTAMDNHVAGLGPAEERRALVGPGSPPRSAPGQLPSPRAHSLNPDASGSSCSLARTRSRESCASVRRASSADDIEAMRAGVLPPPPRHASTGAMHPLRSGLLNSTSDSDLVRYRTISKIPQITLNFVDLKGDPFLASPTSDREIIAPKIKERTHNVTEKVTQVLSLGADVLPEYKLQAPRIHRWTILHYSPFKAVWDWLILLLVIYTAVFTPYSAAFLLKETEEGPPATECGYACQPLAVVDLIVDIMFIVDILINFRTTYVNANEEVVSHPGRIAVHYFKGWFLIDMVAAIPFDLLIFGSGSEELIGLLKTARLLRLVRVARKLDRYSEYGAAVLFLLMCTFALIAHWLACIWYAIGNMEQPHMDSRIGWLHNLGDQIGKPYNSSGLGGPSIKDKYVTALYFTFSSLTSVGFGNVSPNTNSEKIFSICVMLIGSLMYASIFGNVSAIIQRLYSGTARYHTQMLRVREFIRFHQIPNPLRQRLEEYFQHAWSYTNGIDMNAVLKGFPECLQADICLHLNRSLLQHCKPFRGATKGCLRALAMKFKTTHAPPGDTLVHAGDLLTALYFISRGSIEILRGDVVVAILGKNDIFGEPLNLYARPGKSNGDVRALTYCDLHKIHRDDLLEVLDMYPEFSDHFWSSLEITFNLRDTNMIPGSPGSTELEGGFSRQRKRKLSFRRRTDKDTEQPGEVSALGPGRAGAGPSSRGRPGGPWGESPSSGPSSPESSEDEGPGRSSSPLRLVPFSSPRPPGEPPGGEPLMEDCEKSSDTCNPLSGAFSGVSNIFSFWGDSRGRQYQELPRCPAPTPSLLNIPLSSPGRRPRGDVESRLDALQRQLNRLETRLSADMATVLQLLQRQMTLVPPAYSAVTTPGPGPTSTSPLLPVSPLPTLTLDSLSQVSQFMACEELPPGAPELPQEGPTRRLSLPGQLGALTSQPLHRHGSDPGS

Row | Compound | hERG current change (%, negative = inhibition) at 10uM
1 | O=C1CCN(S(=O)(=O)c2ccc(Cl)cc2)N1 | 9.88%
2 | Cc1ccccc1CSCCC(=O)NCCC1=CCCCC1 | 5.34%
3 | CC(=O)N(Cc1ccco1)c1nc(C(=O)Nc2ccc(Cl)cc2)c(C)s1 | 4.58%
4 | Cc1ccc(NC(=O)CCNS(=O)(=O)c2ccc3[nH]c(=O)oc3c2)cc1C | 9.43%
5 | CC(=O)N1c2ccc(S(=O)(=O)NCCC(=O)NCc3ccc(Cl)cc3)cc2CC1C (stereo not shown) | -10.2%
6 | COc1ccc(OC)c(C(=O)Nc2c(O)ccc3ccccc23)c1 | 9.35%
7 | Cc1ccc(NS(=O)(=O)c2ccc3c(c2)CCN3C(=O)CCC(=O)O)cc1Cl | 17.4%
8 | Cc1cc(=O)oc2cc(NC(=O)CCOc3ccccc3)ccc12 | 8.94%
9 | CC(=O)Nc1ccc(S(=O)(=O)Nc2nc3ccccc3nc2Sc2nncn2C)cc1 | 2.53%
10 | CC(=O)N1CCN(S(=O)(=O)c2cccc(C(=O)NNC(=O)COc3ccc(Cl)cc3C)c2)CC1 | 3.63%
11 | CCOC(=O)c1cc(S(=O)(=O)NCCc2ccccc2)cn1C | 2.98%
12 | Cc1ccccc1C(=O)Nc1ccc(S(=O)(=O)N2CCCC2)cc1 | 3.69%
13 | CC(=O)c1sc(NC(=O)CCOc2ccccc2)nc1C | 5.9%
14 | Cl.O=C(CSc1nc2ccc(Cl)cc2[nH]1)c1cccs1 | 5%
15 | O=C(OCCn1cncn1)c1cc2ccccc2oc1=O | 6.78%
16 | Cn1c(-c2sc(=S)n(-c3ccccc3)c2N)nc2ccccc21 | -9.51%
17 | O=C(CN(c1ccccc1)S(=O)(=O)c1ccccc1)Nc1ccccc1C(=O)NCc1ccco1 | 3.93%
18 | CCn1c(SCC(=O)N2CCOCC2)nc2ccccc21 | 8.56%
19 | CC(C)c1ncc(C(O)c2ccccc2)n1C (stereo not shown) | 14.1%
20 | COc1ccc(C(C)=O)cc1CSc1nnc(Nc2c(C)cccc2C)s1 | -45.5%
21 | O=C(O)c1ccc(-c2noc(-c3cccc(C(F)(F)F)c3)n2)cc1 | 23%
22 | CCCCc1nnc(NC(=O)C2CCCO2)s1 (stereo not shown) | -3.68%
23 | Cc1ccc(C(=O)OCC(=O)NC2CCCCC2)o1 | 3.03%
24 | CC(C)OCCCNC(=S)N1CCC(C(=O)c2ccc3c(c2)OCCO3)CC1 | -22.9%
25 | COc1ccc(CN2CCN(CC3CC3)CC2CCO)c(C)c1C (stereo not shown) | -0.714%
